# Source: article PMC10516938, “Conformational dynamics of cohesin/Scc2 loading complex are regulated by Smc3 acetylation and ATP binding” (Nature Communications, 2023)
# These are yes or no findings as the source states them, for the method shown. In cells and extracts the contact can be indirect. Some binding calls cover weakened binding; strength is not graded here.
# T1: Smc3 Q67C (S. cerevisiae) (UniProt P47037)
# T1 sequence: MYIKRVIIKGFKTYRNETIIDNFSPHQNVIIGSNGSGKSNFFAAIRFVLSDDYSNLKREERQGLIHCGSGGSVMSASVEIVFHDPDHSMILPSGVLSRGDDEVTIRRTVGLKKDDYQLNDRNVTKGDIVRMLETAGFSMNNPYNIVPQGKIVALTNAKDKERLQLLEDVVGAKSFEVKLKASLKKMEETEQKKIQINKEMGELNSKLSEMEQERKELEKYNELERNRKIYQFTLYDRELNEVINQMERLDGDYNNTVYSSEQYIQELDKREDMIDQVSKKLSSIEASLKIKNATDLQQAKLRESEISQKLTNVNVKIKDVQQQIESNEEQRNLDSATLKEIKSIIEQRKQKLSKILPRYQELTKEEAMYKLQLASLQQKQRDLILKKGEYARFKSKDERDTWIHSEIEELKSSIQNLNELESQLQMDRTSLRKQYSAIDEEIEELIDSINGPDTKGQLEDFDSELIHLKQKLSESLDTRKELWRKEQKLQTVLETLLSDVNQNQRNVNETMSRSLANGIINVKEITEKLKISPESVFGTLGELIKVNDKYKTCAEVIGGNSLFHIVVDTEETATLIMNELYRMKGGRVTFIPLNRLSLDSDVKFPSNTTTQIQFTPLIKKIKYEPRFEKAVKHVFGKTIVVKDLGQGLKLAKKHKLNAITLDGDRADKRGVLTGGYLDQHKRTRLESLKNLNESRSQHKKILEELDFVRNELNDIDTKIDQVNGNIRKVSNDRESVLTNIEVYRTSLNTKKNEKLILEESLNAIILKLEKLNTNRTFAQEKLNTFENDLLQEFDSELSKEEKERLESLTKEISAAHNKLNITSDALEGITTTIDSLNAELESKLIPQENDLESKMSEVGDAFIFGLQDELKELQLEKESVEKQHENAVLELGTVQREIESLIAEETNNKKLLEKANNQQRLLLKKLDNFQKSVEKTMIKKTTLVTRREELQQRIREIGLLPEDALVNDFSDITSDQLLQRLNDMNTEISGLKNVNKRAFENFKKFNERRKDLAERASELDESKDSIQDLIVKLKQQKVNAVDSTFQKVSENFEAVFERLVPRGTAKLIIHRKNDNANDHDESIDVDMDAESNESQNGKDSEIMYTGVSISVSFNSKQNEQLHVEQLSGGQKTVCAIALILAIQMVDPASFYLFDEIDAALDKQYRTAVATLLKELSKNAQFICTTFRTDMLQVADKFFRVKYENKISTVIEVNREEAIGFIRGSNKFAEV
# T2: Scc1-PK (S. cerevisiae) (UniProt Q12158)
# T2 sequence: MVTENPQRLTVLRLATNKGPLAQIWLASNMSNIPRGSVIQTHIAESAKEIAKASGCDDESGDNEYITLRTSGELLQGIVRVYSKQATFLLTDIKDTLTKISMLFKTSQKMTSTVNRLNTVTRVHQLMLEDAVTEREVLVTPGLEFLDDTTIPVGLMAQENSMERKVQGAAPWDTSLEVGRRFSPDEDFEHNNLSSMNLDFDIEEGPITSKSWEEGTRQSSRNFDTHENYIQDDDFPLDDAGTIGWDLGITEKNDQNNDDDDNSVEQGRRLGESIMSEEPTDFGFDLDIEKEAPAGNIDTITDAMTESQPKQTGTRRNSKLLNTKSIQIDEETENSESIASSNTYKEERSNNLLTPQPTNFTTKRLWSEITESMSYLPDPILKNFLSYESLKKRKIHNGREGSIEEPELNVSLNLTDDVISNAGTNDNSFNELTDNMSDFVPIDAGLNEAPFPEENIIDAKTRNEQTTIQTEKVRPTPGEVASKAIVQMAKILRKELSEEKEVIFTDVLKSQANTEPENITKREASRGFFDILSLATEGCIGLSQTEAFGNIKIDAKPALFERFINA
# How the values were obtained:
# [1] = biological target: T1, Smc3 Q67C (S. cerevisiae); experiment: cross-linking; in vivo BMOE cross-link of cysteine pairs in exponentially grown yeast cells (on ice, 6 min); Scc1-PK immunoprecipitated, western blot
# Scc1-PK (S. cerevisiae) = biological target: T2, Scc1-PK (S. cerevisiae); experiment: co-IP; Scc1-PK immunoprecipitated with anti-PK from whole-cell extracts of cross-linker-treated yeast cells (exponentially grown or late G1 arrested); co-precipitated Smc3-HA, Smc1-Myc or Scc2-FLAG detected by western blot
Binder,binding [1],binding (Scc1-PK (S. cerevisiae))
"Scc2 T1281C (protein, UniProt Q04002 1-1493) MSYPGKDKNIPGRIIEALEDLPLSYLVPKDGLAALVNAPMRVSLPFDKTIFTSADDGRDVNINVLGTANSTTSSIKNEAEKERLVFKRPSNFTSSANSVDYVPTNFLEGLSPLAQSVLSTHKGLNDSINIEKKSEIVSRPEAKHKLESVTSNAGNLSFNDNSSNKKTKTSTGVTMTQANLAEQYLNDLKNILDIVGFDQNSAEIGNIEYWLQLPNKKFVLTTNCLTKLQMTIKNITDNPQLSNSIEITWLLRLLDVMVCNIKFSKSSLKMGLDDSMLRYIALLSTIVLFNIFLLGKNDSNLHRESYIMEPVNFLSDLIESLKILTIEYGSLKIEFDTFQEALELLPKYIRNGPFLDDNVTAKLVYIFSDLLMNNDIEATTNIQFQSFWDNVKRISSDILVSLFGSFDQQRGFIIEELLSHIEKLPTKRIQKKLRKVGNQNIYITDFTFTLMSMLENINCYSFCNQMKDIAPENIDLLKNEYKKQEEFLFNIVEHINDTILERFFKNPSALRYVIDNFVQDLLLLISSPQWPVTEKILSSLLKRLLSVYSPSMQVSANIETICLQLIGNIGSTIFDIKCSTRDHEDNNLIKMINYPETLPHFFKSFEECIAYNETIKCRRSATRFLWNLRLGTILILEEYTKDAKEQIITVDNELKKILEQIKDGGLGPELENREADFSTIKLDYFSILHAFELLNLYDPYLKLILSLLAKDKIKLRSTAIKCLSMLASKDKVILSNPMVKETIHRRLNDSSASVKDAILDLVSINSSYFEFYQQINNNYNDDSIMVRKHVLRINEKMYDETNDIVTKVYVIARILMKIEDEEDNIIDMARLILLNRWILKVHEVLDQPEKLKEISSSVLLVMSRVAIMNEKCSQLFDLFLNFYLLNKEAHSKEAYDKITHVLTILTDFLVQKIVELNSDDTNEKNSIVDKQNFLNLLAKFADSTVSFLTKDHITALYPYMVSDEKSDFHYYILQVFRCTFEKLANFKQKFLYDLETTLLSRLPKMNVREIDEAMPLIWSVATHRHDTARVAKACSSCLSHLHPYINKANNEEAAIVVDGKLQRLIYLSTGFARFCFPKPSNDKIAFLQEGETLYEHITKCLLVLSKDKITHVIRRVAVKNLTKLCGNHPKLFNSRHVLHLLDKEFQSDQLDIKLVILESLYDLFLLEERKSVRNTGVNSTLSSNSILKKKLLKTNRVEFANDGVCSALATRFLDNILQLCLLRDLKNSLVAIRLLKLILKFGYTNPSHSIPTVIALFASTSQYIRHVAYELLEDLFEKYECLVFSSLSRGVTKAIHYSIHTDEKYYYKHDHFLSLLEKLCGTGKKNGPKFFKVLKRIMQSYLDDITDLTSTNSSVQKSIFVLCTNISNITFVSQYDLVSLLKTIDLTTDRLKEVIMDEIGDNVSSLSVSEEKLSGIILIQLSLQDLGTYLLHLYGLRDDVLLLDIVEESELKNKQLPAKKPDISKFSAQLENIEQYSSNGKLLTYFRKHVKDT",no binding,binds
"Scc2 T1175C (natural protein, S. cerevisiae, UniProt Q04002 1-1493, looked up, Scc2, S. cerevisiae; source: S. cerevisiae W303, in vivo, whole-cell extract) MSYPGKDKNIPGRIIEALEDLPLSYLVPKDGLAALVNAPMRVSLPFDKTIFTSADDGRDVNINVLGTANSTTSSIKNEAEKERLVFKRPSNFTSSANSVDYVPTNFLEGLSPLAQSVLSTHKGLNDSINIEKKSEIVSRPEAKHKLESVTSNAGNLSFNDNSSNKKTKTSTGVTMTQANLAEQYLNDLKNILDIVGFDQNSAEIGNIEYWLQLPNKKFVLTTNCLTKLQMTIKNITDNPQLSNSIEITWLLRLLDVMVCNIKFSKSSLKMGLDDSMLRYIALLSTIVLFNIFLLGKNDSNLHRESYIMEPVNFLSDLIESLKILTIEYGSLKIEFDTFQEALELLPKYIRNGPFLDDNVTAKLVYIFSDLLMNNDIEATTNIQFQSFWDNVKRISSDILVSLFGSFDQQRGFIIEELLSHIEKLPTKRIQKKLRKVGNQNIYITDFTFTLMSMLENINCYSFCNQMKDIAPENIDLLKNEYKKQEEFLFNIVEHINDTILERFFKNPSALRYVIDNFVQDLLLLISSPQWPVTEKILSSLLKRLLSVYSPSMQVSANIETICLQLIGNIGSTIFDIKCSTRDHEDNNLIKMINYPETLPHFFKSFEECIAYNETIKCRRSATRFLWNLRLGTILILEEYTKDAKEQIITVDNELKKILEQIKDGGLGPELENREADFSTIKLDYFSILHAFELLNLYDPYLKLILSLLAKDKIKLRSTAIKCLSMLASKDKVILSNPMVKETIHRRLNDSSASVKDAILDLVSINSSYFEFYQQINNNYNDDSIMVRKHVLRINEKMYDETNDIVTKVYVIARILMKIEDEEDNIIDMARLILLNRWILKVHEVLDQPEKLKEISSSVLLVMSRVAIMNEKCSQLFDLFLNFYLLNKEAHSKEAYDKITHVLTILTDFLVQKIVELNSDDTNEKNSIVDKQNFLNLLAKFADSTVSFLTKDHITALYPYMVSDEKSDFHYYILQVFRCTFEKLANFKQKFLYDLETTLLSRLPKMNVREIDEAMPLIWSVATHRHDTARVAKACSSCLSHLHPYINKANNEEAAIVVDGKLQRLIYLSTGFARFCFPKPSNDKIAFLQEGETLYEHITKCLLVLSKDKITHVIRRVAVKNLTKLCGNHPKLFNSRHVLHLLDKEFQSDQLDIKLVILESLYDLFLLEERKSVRNCGVNSTLSSNSILKKKLLKTNRVEFANDGVCSALATRFLDNILQLCLLRDLKNSLVAIRLLKLILKFGYTNPSHSIPTVIALFASTSQYIRHVAYELLEDLFEKYETLVFSSLSRGVTKAIHYSIHTDEKYYYKHDHFLSLLEKLCGTGKKNGPKFFKVLKRIMQSYLDDITDLTSTNSSVQKSIFVLCTNISNITFVSQYDLVSLLKTIDLTTDRLKEVIMDEIGDNVSSLSVSEEKLSGIILIQLSLQDLGTYLLHLYGLRDDVLLLDIVEESELKNKQLPAKKPDISKFSAQLENIEQYSSNGKLLTYFRKHVKDT",binds,binds
